Assay results taken from the supplement of paper PMC7826260.
Some of the results follow. One pool of 16,384 single-stranded DNAs met each Rep nickase domain in vitro (3 µM enzyme, 1 h, 37 °C); shown is the middle of each 90-letter strand. Values are log2 of uncut reads against the no-enzyme pool; strong cutting gives strongly negative numbers. There is no active / inactive call. Counts are relative to all reads; uncut strands gain when others are lost, and binding without cutting may add a little.

tested on: T1, Rep nickase domain of tomato golden mosaic virus; experiment: uncleaved DNA left, log2 of reads against the no-enzyme library (log2 ratio); higher = less cleavage (more negative = more Rep cleavage of the k-mer); sequences stand for … in CTCGTCCG…ACCGGAGA
T1 sequence (residues 1-124, tag not shown): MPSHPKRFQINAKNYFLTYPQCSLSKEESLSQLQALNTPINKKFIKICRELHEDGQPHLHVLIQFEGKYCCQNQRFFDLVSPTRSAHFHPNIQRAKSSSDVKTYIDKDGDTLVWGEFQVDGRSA
Method: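 A pool of 90-nt single-stranded DNAs with seven random bases just before the constant AC of the nick site (name = the seven bases) was cut by 3 µM recombinant His6-SUMO-tagged Rep nickase domain (300 nM DNA, 50 mM HEPES pH 8.0, 50 mM NaCl, 1 mM MnCl2, 1 h, 37 °C, three replicates). Uncut DNA was amplified and sequenced.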

| Sequence | uncleaved DNA left (log2) |
| --- | --- |
| CCACTGC | 0.0873 |
| TTCATCG | 0.0132 |
| ACATACA | 0.0383 |
| GCCTCTC | 0.0361 |
| AACCTTT | -0.141 |
| TCGCCAC | 0.00256 |
| GCGGAAG | -0.00938 |
| GCGAGGA | -0.0417 |
| ATGCAGG | 0.173 |
| GGAAAGG | -0.0228 |
| TGACACG | 0.0453 |
| ATCGTCA | 0.0353 |
| TATAGAG | 0.0682 |
| AGAGGAC | 0.216 |
| ATCAATA | 0.159 |
| AGGAAGG | -0.0783 |
| CGACTGC | -0.0962 |
| CGATAGA | -0.022 |
| GACGAAC | -0.111 |
| CAGCATG | -0.0162 |

| Sequence | uncleaved DNA left (log2) |
| --- | --- |
| GTTCGCT | -0.0161 |
| GCCAGAC | -0.0734 |
| CAATTCC | -0.458 |
| CTTCTCC | -0.176 |
| CTCGCCT | -0.0157 |
| CGTTAGT | 0.101 |
| TGGATCA | -0.0195 |
| CAATAAC | -0.0927 |
| CACGCAA | 0.013 |
| GTAAAAC | 0.11 |
| TGTAGGG | 0.173 |
| TATCCGC | -0.0334 |
| AGCAGAG | 0.00894 |
| GTCGGGC | 0.0115 |
| TCAGGTG | 0.0422 |
| CCGTCGA | -0.227 |
| CCTCTCA | 0.0161 |
| ACGGTAA | 0.2 |
| GCAGCGG | 0.127 |
| TTCCTCC | 0.0256 |
